# According to the supplement of paper PMC11417369:
# ± gives the standard deviation of the averaged measurements. Some of the results follow.
# Test system: PfAP2-EXP AP2 domain (GST-tagged)
# Assay: gcPBM binding intensity (ln(normalized median fluorescence intensity)); higher = stronger DNA binding
# Method in brief: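 In this array assay, P. falciparum DNA-binding domains with a GST tag, expressed in E. coli, were applied for 1 h to primer-extended double-stranded 36-bp intergenic genomic probes and negative controls on an Agilent 4 × 180k array. Bound protein was visualised with Alexa488 anti-GST antibody at 488 nm. Binding intensity is the highest Masliner-normalised natural-log median intensity across replicate spots of either probe orientation.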
row,Sequence,gcPBM binding intensity (ln)
1,TTTTTTTATAGCTAAACACACATAAGAATATATGTT [CACACA_site1099],8.59 ± 0.61
2,TATATATGTGTATAGAGTACACGTTTTTTTTAATAT [XGTACX_site3128],8.14 ± 0.11
3,AAAAACCTGAACTGTGCATGTCATACTTTTACTTTT [TGCATGCA_site73],8.85 ± 0.31
4,TGTATAAACTTTACGTGTACATGAATAATCTATAAT [XGTACX_site3801],8.62 ± 0.45
5,TAAATACATCTATGCACACAAAAAAATATATATTTT [CACACA_site5027],8.57 ± 0.53
6,AAAATAATTTTATAAGTGCAAAATAGCTTATTTATA,8.47 ± 0.18
7,TAATCATTTTAGCTTACACACAAAATTTTGTTATAA [CACACA_site2939],8.48 ± 0.41
8,TTTATAAATTCTCTTTTTAAAAAATATTTTTATACT [CACACA_negctrl_site427],8.31 ± 0.45
9,AAAATGGAACTAGGAATAATATAAGAAGATAAAAGG [XGTACX_negctrl_site347],8.87 ± 0.47
10,TTGTACAAAAATAATGCACACTATATCAAGTTTTTT [CACACA_site5898],8.66 ± 0.028
11,TATACGTATTACAGAGTGCAATAAACAGTATATATT,8.78 ± 0.3
12,GTAAAACAGATTTACAGTACACATGTGTTATGTTTT [XGTACX_site2933],8.7 ± 0.38
13,ATAAAAATATTTGAATGTACTTATAAGATATATATA [XGTACX_site4257],8.63 ± 0.35
14,TTTATATATAAATAATGTACAAAAAATTTTAAAAAG [XGTACX_site7990],8.9 ± 0.29
15,TTTTTATATTTTATTATTTTTTTTATATAAAAAATT [CACACA_negctrl_site601],8.62 ± 0.42
16,TATTTTAATTTTTGTTGTACGCAAATGTGAGGGCAT [XGTACX_site4663],8.68 ± 0.43
17,TAAACCAAAAAAAGTAGTACAAATATTATAAAAAAA [XGTACX_site8497],8.69 ± 0.39
18,GATGTATTCATACATGCACACGTACATATTTAAATA [CACACA_site9299],8.84 ± 0.32
19,TGTTTATTTATTTGTGTGCACTCAGATTATATTATA [GTGCAC_site9510],8.95 ± 0.2
20,AAATCGTGCACGGACACATGCAGTAGCCGAGAATTA [TGCATGCA_site733],9.08 ± 0.34
21,AGGTAGAAAAAAGACACACACATTAGATATTTATAT [CACACA_site6313],8.73 ± 0.36
22,GTTCATAAATTAAACACACACACACGGCTGGATACC [CACACA_site7545],8.86 ± 0.47
23,GTTCAAATTATTATGTGTACTAAAGAATATTTTAAA [XGTACX_site3166],8.29 ± 0.28

row,Sequence,gcPBM binding intensity (ln)
1,CTTTATTTTTTATACACACACAATATGTATTTATAT [CACACA_site5879],8.83 ± 0.41
2,TCTATTTTTTATATGGTGCATTGTTCTTATTAATAT [GTGCAC_site9392],9.1 ± 0.28
3,AATTAATTTATGTTACGTACATAAGTATTATATTTT [XGTACX_site388],8.62 ± 0.2
4,AGGAAAAATAATTATTCACACAATAAATATATTTGA [CACACA_site5824],8.33 ± 0.48
5,AAATGTAATATAAATAGTACATATTAAATAAAATTA [XGTACX_site6917],8.31 ± 0.27
6,ATGTGCACATATAAAAGTACACGCACATATATATAT [XGTACX_site1238],9.82 ± 0.028
7,TGCACAAAGTTATGCACACACCTAAAATTAATTTTT [CACACA_site7385],8.995 ± 0.007
8,TATACACATATATACACACACATATATAAATAAATA [CACACA_site7579],8.55 ± 0.35
9,GTACATAGGTATAGCACACACAAATGTAGGTATTTT [CACACA_site4049],8.46 ± 0.28
10,ATTCTTTATATGCATACACACCTAATATAGGGACCT [CACACA_site6830],9.04 ± 0.6
11,TTATAATATGTATACACACACATATATAGATATATA [CACACA_site7159],8.54 ± 0.4
12,AAAAAAAAAAAAAAAACACACATAAAAATATAATAA [CACACA_site3855],8.53 ± 0.33
13,ATTATATATAATATAGTGCATGTAAAAAATAAAACA,9.23 ± 0.33
14,AAGAATATTATAAACACACACTTTATAAAGAATTAT [CACACA_site4241],8.51 ± 0.52
15,TATATAATTGTCTTCACACACACATATATATATATA [CACACA_site2744],10 ± 0.3
16,TATTTTATTTGTATATTCATTTGTATAATATAAATA [TGCATGCA_negctrl_site267],8.21 ± 0.39
17,AAAATAATAAAAAGGGGTACAAAGAAACAAATATAA [XGTACX_site296],9.03 ± 0.53
18,AATTTATTTTTTTGATGTACATACAATTTATCACAA [XGTACX_site5936],8.79 ± 0.42
19,TTGATGTTGGTAGGATGTACGGTACCGGTAGTATTT [XGTACX_site6642],8.78 ± 0.58
20,AAGGAAAAGTAAAGAAGTACTGTACCGCCAAAAAAA [XGTACX_site2607],9.18 ± 0.57
21,TATGTGCATATAAACTCACACATTGTATATTACATG [CACACA_site6106],8.75 ± 0.23
22,ATATATGTAGATATATGTACATATATAGGTAGATAT [XGTACX_site7589],9.15 ± 0.42
23,ATAAAATAACACAACGTTGACAAATTTGGATGACTC [XGTACX_negctrl_site324],9.18 ± 0.55

row,Sequence,gcPBM binding intensity (ln)
1,TTTATTAAAATATTCTCACACACCAAAATATGTATG [CACACA_site932],8.33 ± 0.24
2,ACTTTAGAAATAGAGGTGCTATTTTTATTACCACAC,8.47 ± 0.22
3,AAAAATTTATTTAAAAGTACATAAAATAAAGGTGGA [XGTACX_site7591],8.87 ± 0.4
4,TATTACATTATATAAACATGCAAAACTATATATTAT [TGCATGCA_site601],8.63 ± 0.45
5,ATTTTAGAATTTAATACACACAAAAAAAAAAAATTA [CACACA_site3704],8.38 ± 0.47
6,GGAAAATATGTTTGTGTGCACAGCTAGCTATTTGTA [GTGCAC_site9637],8.84 ± 0.31
7,TTTTTTTTTTTCAAGCGTACAAAAAATATATTTAAA [XGTACX_site5327],8.46 ± 0.35
8,AATTTTTTTTGTCTCTGTACTTATAAAATATATATG [XGTACX_site4742],8.72 ± 0.42
9,AAATAAATTGATTCAACACACACATATGTAGGAAGT [CACACA_site9068],8.97 ± 0.33
10,CACCCACACCAACACACACACATATATATATATATA [CACACA_site362],10.4 ± 0.2
11,TATATATGGGTAACCTTTTTTTTTTTTTTTCGAACA [CACACA_negctrl_site1303],8.22 ± 0.59
12,AAAAAAAATTTTAATTGTACAAAAAAAAAAAATATA [XGTACX_site2259],8.42 ± 0.41
13,AAATAACAAATTTTTAAAATGTATATATATATATAT [TGCATGCA_negctrl_site219],10.2 ± 0.74
14,ATTCATAATTTATTATGTACATATATATAATATATT [XGTACX_site1711],8.46 ± 0.35
15,AATAAATTGGTATGTTGTACAAAGTAACCATCGATT [XGTACX_site2823],8.69 ± 0.47
16,ATATCATGTTAAGATTGTACATATATATAATATATA [XGTACX_site7626],8.35 ± 0.36
17,TAAAACCTTTAAAATACATGCAGCATATATAAGTAA [TGCATGCA_site181],8.96 ± 0.35
18,AAGGATATAACATACACACACACACCCATATATATA [CACACA_site4142],8.81 ± 0.2
19,AAAGAAATTATTTGTTGTACATATGTTATTTTTTTT [XGTACX_site7570],8.45 ± 0.53
20,TGCAATTTAATATGAGTGCATATATTGAGAAAATAC,8.81 ± 0.19
21,TCACTTAATATTTAATGTACATAAGGTTCTTGTGCC [XGTACX_site1822],8.51 ± 0.46
22,ATATTTTTTACAAATTGTACATTTTTACAATTATTA [XGTACX_site7496],8.59 ± 0.35
23,TAACCTAAAATAACTACACACACATAAAAAAAAAAA [CACACA_site8807],8.57 ± 0.47

row,Sequence,gcPBM binding intensity (ln)
1,TATAAATTAAAATGTGTGCACTAAATTGAAATAGAA,9.04 ± 0.099
2,ATATATATATATAATAGTACATATATTTTTATTGGT [XGTACX_site711],9.87 ± 0.28
3,ATTATTACATTTTTATGTACATATCAAATTTATACA [XGTACX_site7332],8.61 ± 0.31
4,TTAACTTAAGGAGAGTGTACAAATAATAAAATATCT [XGTACX_site4118],8.78 ± 0.43
5,TTAAAATATGAATAATGTACAAGAAATTTTATTAAT [XGTACX_site6314],8.47 ± 0.32
6,AAAAAAAATTTATGGGGTACATATTATAATATTATA [XGTACX_site3395],8.8 ± 0.56
7,TTATATAACATTATTTGTACATATAAAATATGGATG [XGTACX_site8526],8.3 ± 0.28
8,ATGTATGAATTACATAGTACATAAGAAAAAATGAAG [XGTACX_site5942],9.04 ± 0.38
9,GTAGTGGTTGAATATACACACATATATAAATAAATA [CACACA_site7282],8.56 ± 0.45
10,GTTTTCATCCAAAAAAGTACATTTATTTTTATACGA [XGTACX_site1039],8.45 ± 0.41
11,AAATATAAAGTGCACACACACAAAAAAAGAAAAAAA [CACACA_site6452],8.73 ± 0.35
12,GGAAAATCTTTATAATGTACATTATGATTATATAAT [XGTACX_site6256],8.71 ± 0.76
13,TTATTTTTTTTAAATTGTACAAGGAACAGTGAAAAA [XGTACX_site4380],9.02 ± 0.34
14,TTTGTGTGTACGCGTGTGCACATTTTTTTTTTTTTT,8.725 ± 0.021
15,TAAATGTCTTCAATGAAGTGGAAATGCTGTTATATA [CACACA_negctrl_site1155],8.45 ± 0.51
16,TATATAACCTATAGCACACATATATAATATATATTA [CACACA_site1834],8.64 ± 0.25
17,TTCTATTCAAATGCAAAATTATTAAATAAAAAATAA [GTGCAC_negctrl_site708],8.47 ± 0.49
18,AAACGTGTGTATAATAGTACATAATTATAACGTAAT [XGTACX_site421],8.82 ± 0.38
19,AAATTTGGCAAACACACACACACACCCACAGAGACA [CACACA_site4490],8.73 ± 0.49
20,CGTATTTTTGGACATGCATGTACAAATAATCTTATG [TGCATGCA_site973],9.14 ± 0.33
21,TTGGGCATAATGTCATGTACACAAATAATTCTTTAT [XGTACX_site861],8.54 ± 0.43
